{"source": "PubChem BioAssay AID651820", "about": "(National Center for Advancing Translational Sciences (NCATS), 2012)", "note": "Where “and” joins values, the source holds several entries; their conditions need not be identical. Identical values can stand only once. Out of some 340,000 compounds screened, about 12,000 (3.5%) were called active. This list was built around the results that the source calls inconclusive (neither active nor inactive); the mix of calls is not that of the screen. Calls come from the whole dose curve; as a rule, active = well fitted inhibition curve with a large enough effect; inconclusive = small, poorly fitted or top-dose-only effect, or another doubt; inactive = no such curve, though single readings can be large or run the other way. Where the call is inconclusive, the potency comes from a doubtful curve fit. Potency is the fitted concentration of half-maximal effect; tags give direction and shape of the fitted curve."}
{"test": "qHTS Assay for Inhibitors of Hepatitis C Virus (HCV)", "conditions": "Huh7.5.1 HCVcc-Cre (HCVcc is cell-culture hepatitis C virus) infection, luciferase reporter, 44 h; series mostly up to 41.8 µM", "procedure,_shortened": "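Reporter virus HCVcc-Cre (~0.5 moi) infects cells exposed to compound; seeding density 1,000 cells/well with 4 h settling beforehand. Luminescence, 15 sec read, taken 44 h post-infection following a 15 min RT substrate incubation.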"}
{"smiles": "CS(=O)(=O)c1ccc2nc(NC(=O)c3ccc(N4C(=O)CCC4=O)cc3)sc2c1", "Potency": "inactive"}
{"smiles": "Cc1[nH][nH]c(=O)c1C(c1ccc2c(c1)OCO2)c1c(C)[nH][nH]c1=O", "Potency": "inconclusive: 31.6 µM [inhibitor, single point]"}
{"smiles": "COCCn1c(=S)[nH]c2cc(C(=O)N3CCc4ccccc43)ccc2c1=O", "Potency": "inconclusive: 7.94 µM [inhibitor, partial curve]"}
{"smiles": "COc1cc(OC)c(NC(=O)c2sc3ncn(CC(=O)N4CCN(c5ccccn5)CC4)c(=O)c3c2C)cc1Cl", "Potency": "inconclusive: 2.82 µM [inhibitor, full curve]"}
{"smiles": "O=C(COC(=O)c1cc(S(=O)(=O)N2CCOCC2)c(Cl)cc1Cl)NC1CC1", "Potency": "inconclusive: 11.2 µM [inhibitor, single point]"}
{"smiles": "CCCC1=Nc2cc(C(=O)NCCN3CCCC3)ccc2Sc2ccccc21", "Potency": "inconclusive: 11.2 µM [inhibitor, partial curve]"}
{"smiles": "O=C(Cc1ccccc1)NCc1n[nH]c(=S)n1-c1ccccc1", "Potency": "inactive"}
{"smiles": "Oc1ccc(CCNc2ncnc3ccc(Cl)cc23)cc1", "Potency": "active: 3.16 µM"}
{"smiles": "O=C(N/N=C/c1cccc([N+](=O)[O-])c1)c1cc[n+](CCO)cc1", "Potency": "inactive"}
{"smiles": "CCN(CC)S(=O)(=O)c1ccc(N2CCN(C)CC2)c(NC(=O)COc2ccc(F)cc2Cl)c1", "Potency": "inconclusive: 35.5 µM [inhibitor, single point]"}
{"smiles": "Nc1nc2ccccc2n1C(=O)CCc1ccccc1", "Potency": "inconclusive: 0.562 µM [inhibitor, full curve]"}
{"smiles": "O=C(NCc1ccc2c(c1)OCO2)c1ccc(CS(=O)Cc2cccc(Cl)c2)o1", "note": "(stereo unspecified)", "Potency": "inactive"}
{"smiles": "CCN(c1ccc(OC)cc1)S(=O)(=O)c1cc(-c2cc(C)no2)ccc1C(C)C", "Potency": "active: 12.6 µM"}
{"smiles": "CC(NC(C)c1ccccc1Cl)C(=O)Nc1cccc(S(=O)(=O)N2CCCCC2)c1", "note": "(stereo unspecified)", "Potency": "inconclusive: 11.2 µM [inhibitor, partial curve]"}
{"smiles": "Cc1cc(C(=O)OCC(=O)Nc2ccc(F)c(F)c2)c(C)o1", "Potency": "inconclusive: 12.6 µM [inhibitor, partial curve]"}
{"smiles": "CCOC(=O)C1(Cc2cccc(OC)c2)CCCN(C(=O)c2cc(C)oc2C)C1", "note": "(stereo unspecified)", "Potency": "inconclusive: 12.6 µM [inhibitor, partial curve]"}
{"smiles": "C/C(=N\\NC(=O)c1ccccc1F)c1ccc2c(c1)Nc1ccccc1S2", "Potency": "inconclusive: 31.6 µM [inhibitor, partial curve]"}
{"smiles": "CC1CN(C(=S)NC(=O)c2ccc([N+](=O)[O-])cc2)CC(C)O1", "note": "(stereo unspecified)", "Potency": "inactive"}
{"smiles": "Cc1ccnc(NC(=O)CCC(=O)N(CC(=O)NCCc2ccccc2)Cc2cccs2)c1", "Potency": "inconclusive: 31.6 µM [inhibitor, single point]"}
{"smiles": "O=c1[nH]c(N/N=C/c2cc3c(cc2[N+](=O)[O-])OCO3)nc2ccccc12", "Potency": "inactive"}
{"smiles": "Cc1ccc(C(C)C)c(OCCNC(=O)c2ccccc2O)c1", "Potency": "inconclusive: 10 µM [inhibitor, partial curve]"}
{"smiles": "CN(C)S(=O)(=O)c1ccc(N2CCCC2)c(C(=O)OCC(=O)NC2(C#N)CCCCC2)c1", "Potency": "inconclusive: 15.8 µM [inhibitor, single point]"}
{"smiles": "Cc1ccc2nc(NC(=O)C(NS(=O)(=O)c3cccc4nsnc34)C(C)C)sc2c1", "note": "(stereo unspecified)", "Potency": "inconclusive: 22.4 µM [inhibitor, single point]"}
{"smiles": "Cc1nnc(SCC(=O)NC2CCCCC2)n1N", "Potency": "inactive"}
{"smiles": "O=C(c1cc(N2C(=O)C3C4CCC(C4)C3C2=O)ccc1Cl)N1CCN(c2ccc(F)cc2)CC1", "note": "(stereo unspecified)", "Potency": "inconclusive: 31.6 µM [inhibitor, single point]"}
{"smiles": "Cc1cc(N)cc(C)c1-c1c(Br)cc(N)cc1Br", "Potency": "inconclusive: 31.6 µM [inhibitor, single point]"}
{"smiles": "Cc1ccc(/C=c2\\s/c(=C(/C#N)C(=O)N3CCCC3)n(Cc3ccco3)c2=O)s1", "Potency": "inconclusive: 8.91 µM [inhibitor, partial curve]"}
{"smiles": "O=C(NC1CCCc2ccccc21)c1ccc([N+](=O)[O-])cc1", "note": "(stereo unspecified)", "Potency": "inactive"}
{"smiles": "COc1ccc(-c2sc3cc4c(cc3c2C#Cc2ccc(N)cc2)OCO4)cc1", "Potency": "inconclusive: 11.2 µM [inhibitor, single point]"}
{"smiles": "CN1CCC(=C2c3ccccc3CC(=O)c3sccc32)CC1", "Potency": "inconclusive: 12.6 µM [inhibitor, partial curve] and inconclusive: 8.91 µM [inhibitor, partial curve]"}
{"smiles": "CCN(CC(=O)NCc1ccc(Cl)cc1)C(=O)CCOc1ccc(C)cc1", "Potency": "inconclusive: 8.91 µM [inhibitor, partial curve]"}
{"smiles": "CCCN1CCN(C(=S)Nc2ccccc2C(F)(F)F)CC1", "Potency": "inconclusive: 31.6 µM [inhibitor, single point]"}
{"smiles": "COc1ccc(N(C)S(=O)(=O)c2ccc(Cl)c(C(=O)NCC(C)(C)N3CCOCC3)c2)cc1", "Potency": "inconclusive: 3.55 µM [inhibitor, partial curve]"}
{"smiles": "Cc1cccc2cc3c(NC(=O)C(C)C)nn(C)c3nc12", "Potency": "inconclusive: 14.1 µM [inhibitor, single point]"}
{"smiles": "CC(C)Oc1cccc(C(=O)C2CCCN(Cc3cnc(N4CCCC4)s3)C2)c1", "note": "(stereo unspecified)", "Potency": "inconclusive: 12.6 µM [inhibitor, single point]"}
{"smiles": "CCN(CC(=O)NC1CCS(=O)(=O)C1)S(=O)(=O)c1cc(C)ccc1C", "note": "(stereo unspecified)", "Potency": "inconclusive: 31.6 µM [inhibitor, single point]"}
{"smiles": "COc1ccc(NC(=O)CC(NCc2ccccn2)C(=O)O)cc1", "note": "(stereo unspecified)", "Potency": "inactive"}
{"smiles": "COc1cc(NS(=O)(=O)c2ccc(Nc3nc(-c4ccccc4)cs3)cc2)nc(OC)n1", "Potency": "inconclusive: 10 µM [inhibitor, single point]"}
{"smiles": "O=C(CS(=O)(=O)c1ccccc1)Nc1ccc(S(=O)(=O)Nc2ncccn2)cc1", "Potency": "inactive"}
{"smiles": "O=C(CSc1nc2ccccc2c(=O)n1-c1ccc(F)cc1F)c1c[nH]c2ccccc12", "Potency": "inconclusive: 31.6 µM [inhibitor, single point]"}
{"smiles": "Cc1nn(-c2ccc(N3CCCCC3)nn2)c(C)c1CCC(=O)Nc1cccc(F)c1", "Potency": "inactive"}
{"smiles": "Cc1ccc(OCCCCCN2CCOCC2)cc1", "Potency": "inactive"}
{"smiles": "OC(COc1ccc(F)cc1Cl)CN1CCC(Cc2ccccc2)CC1", "note": "(stereo unspecified)", "Potency": "inconclusive: 20 µM [inhibitor, partial curve, poor fit]"}
{"smiles": "Cc1ccccc1CN1C(=O)c2ccccc2Sc2ccc(C(=O)NCCCN3CCOCC3)cc21", "Potency": "inconclusive: 12.6 µM [inhibitor, single point]"}
{"smiles": "CC(C)COc1ccc(-c2nnn(CC(=O)N3CCCC3)n2)cc1", "Potency": "inconclusive: 5.01 µM [inhibitor, single point]"}
{"smiles": "COc1cc(OC)cc(C(=O)OCC(=O)c2cc(C)n(CC3CCCO3)c2C)c1", "note": "(stereo unspecified)", "Potency": "inconclusive: 8.91 µM [inhibitor, partial curve]"}
{"smiles": "Cc1cccc(C)c1OCC(=O)NNC(=S)NC(=O)C1CC1", "Potency": "inconclusive: 22.4 µM [inhibitor, single point]"}
{"smiles": "CCOC(=O)c1c(C)[nH]c(C(=O)OCc2c(C)noc2C)c1C", "Potency": "active: 11.2 µM"}
{"smiles": "COc1ccc(Nc2cc(C)nc(-n3nc(C)cc3C)n2)cc1", "Potency": "inconclusive: 1 µM [inhibitor, full curve]"}
{"smiles": "Clc1ccc(C[n+]2c(-c3ccccc3)cc(-c3ccccc3)cc2-c2ccccc2)cc1", "Potency": "inconclusive: 3.16 µM [inhibitor, full curve]"}
{"smiles": "CN1CCCC(CC2c3ccccc3Sc3ccccc32)C1", "note": "(stereo unspecified)", "Potency": "active: 2.82 µM"}
{"smiles": "COc1cccc(NC(=O)COC(=O)c2ccc(C)c(S(=O)(=O)N3CCCCC3)c2)c1", "Potency": "inconclusive: 22.4 µM [inhibitor, single point]"}
{"smiles": "O=C(Nc1ccc2c(c1)OCO2)C1CCN(S(=O)(=O)Cc2ccccc2)CC1", "Potency": "inconclusive: 11.2 µM [inhibitor, single point]"}
{"smiles": "COc1ccc(C2(CNC(=O)c3ccc(OC)c([N+](=O)[O-])c3)CCOCC2)cc1OC", "Potency": "inactive"}
{"smiles": "C=CCn1c(N)cc(=O)nc1SC(C)C(=O)Nc1cccc2ccccc12", "note": "(stereo unspecified)", "Potency": "inconclusive: 11.2 µM [inhibitor, single point]"}
{"smiles": "O=S(=O)(NCc1ccccc1)c1cccc(S(=O)(=O)N2CCOCC2)c1", "Potency": "inactive"}
{"smiles": "COc1ccc(S(=O)(=O)N2CCOC2CNC(=O)C(=O)NCCc2ccc(OC)c(OC)c2)cc1", "note": "(stereo unspecified)", "Potency": "inconclusive: 31.6 µM [inhibitor, single point]"}
{"smiles": "COc1ccccc1C/C(N)=N/OC(=O)c1ccc(C)c([N+](=O)[O-])c1", "Potency": "inconclusive: 6.31 µM [inhibitor, full curve]"}
{"smiles": "Cc1cc(NC(C)C)n2c(nc3ccccc32)c1C#N", "Potency": "inconclusive: 0.501 µM [inhibitor, partial curve, poor fit]"}
{"smiles": "COC(=O)c1[nH]c2cccc(OC)c2c1NC(=O)CN1CCN(c2cccc(OC)c2)C(C)C1", "note": "(stereo unspecified)", "Potency": "inactive"}
{"smiles": "COc1ccccc1CN(C)C(=O)c1cccc(S(=O)(=O)N2CCCc3ccccc32)c1", "Potency": "active: 10 µM"}
{"smiles": "O=C1C2(Cl)C3(Cl)C4(Cl)C(Cl)(Cl)C5(Cl)C3(Cl)C1(Cl)C5(Cl)C24Cl", "note": "(stereo unspecified)", "Potency": "inconclusive: 35.5 µM [inhibitor, partial curve, poor fit] and inconclusive: 31.6 µM [inhibitor, single point]"}
{"smiles": "COc1cc(CC(=O)Nc2nc(-c3ccccc3)c(C(C)=O)s2)cc(OC)c1OC", "Potency": "active: 12.6 µM"}
{"smiles": "COc1ccc(CC2(CO)CCN(Cc3ccc(OC(F)(F)F)cc3)CC2)cc1", "Potency": "inconclusive: 1.58 µM [inhibitor, partial curve]"}
{"smiles": "CCN(c1ccccc1)S(=O)(=O)c1ccc(Cl)c(NC(=O)CN2CCCCCC2)c1", "Potency": "active: 14.1 µM"}
{"smiles": "CCn1cc(/C=N\\NC(=O)c2ccc3c(c2)c(C)c(C)n3Cc2ccccc2)c(C)n1", "Potency": "inactive"}
